# This is one part of the list.
# Columns and labels:
# Assay in all cases: glycan array binding signal (z-score within array); higher = stronger binding
# Conditions in all cases: glycan notation: IUPAC condensed, linker removed
# [1] = molecular target: Neu5Ac(a2-3)Gal(b1-4)GlcNAc(b1-3)[Neu5Ac(a2-3)Gal(b1-4)GlcNAc(b1-6)]GalNAc
# Summary of the method: (§1)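 Arrays were curated from the Consortium for Functional Glycomics database, 3228 in total, and kept only where the protein sequence was available. Binding is expressed as a within-array Z-score. This score was averaged across arrays of the same protein sequence at different concentrations or buffers and across linkers, and negative values can be read as non-binding.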
# [2] = molecular target: Neu5Ac(a2-3)Gal(b1-4)GlcNAc(b1-6)GalNAc
# Summary of the method: as §1
# [3] = molecular target: Neu5Ac(a2-3)Gal(b1-4)GlcNAc(b1-6)[Gal(b1-3)]GalNAc
# Summary of the method: as §1
# [4] = molecular target: Neu5Ac(a2-3)Gal(b1-4)GlcNAc(b1-6)[Neu5Ac(a2-3)Gal(b1-3)]GalNAc
# Summary of the method: as §1
# [5] = molecular target: Neu5Ac(a2-3)Gal(b1-4)GlcNAc6S
# Summary of the method: as §1
# [6] = molecular target: Neu5Ac(a2-3)Gal(b1-4)[Fuc(a1-3)]GlcNAc
# Summary of the method: as §1
# [7] = molecular target: Neu5Ac(a2-3)Gal(b1-4)[Fuc(a1-3)]GlcNAc(b1-2)Man
# Summary of the method: as §1
# [8] = molecular target: Neu5Ac(a2-3)Gal(b1-4)[Fuc(a1-3)]GlcNAc(b1-3)Gal
# Summary of the method: as §1
# [9] = molecular target: Neu5Ac(a2-3)Gal(b1-4)[Fuc(a1-3)]GlcNAc(b1-3)Gal(b1-4)GlcNAc
# Summary of the method: as §1
# [10] = molecular target: Neu5Ac(a2-3)Gal(b1-4)[Fuc(a1-3)]GlcNAc(b1-3)Gal(b1-4)[Fuc(a1-3)]GlcNAc(b1-3)Gal(b1-4)[Fuc(a1-3)]GlcNAc
# Summary of the method: as §1
# [11] = molecular target: Neu5Ac(a2-3)Gal(b1-4)[Fuc(a1-3)]GlcNAc(b1-3)GalNAc
# Summary of the method: as §1
# [12] = molecular target: Neu5Ac(a2-3)Gal(b1-4)[Fuc(a1-3)]GlcNAc(b1-6)[Gal(b1-3)]GalNAc
# Summary of the method: as §1
# [13] = molecular target: Neu5Ac(a2-3)Gal(b1-4)[Fuc(a1-3)]GlcNAc(b1-6)[Neu5Ac(a2-3)Gal(b1-3)]GalNAc
# Summary of the method: as §1
# [14] = molecular target: Neu5Ac(a2-3)Gal(b1-4)[Fuc(a1-3)]GlcNAc6S
# Summary of the method: as §1
# [15] = molecular target: Neu5Ac(a2-3)Gal6S(b1-4)GlcNAc
# Summary of the method: as §1
# [16] = molecular target: Neu5Ac(a2-3)Gal6S(b1-4)[Fuc(a1-3)]GlcNAc
# Summary of the method: as §1
# [17] = molecular target: Neu5Ac(a2-3)GalNAc
# Summary of the method: as §1
# [18] = molecular target: Neu5Ac(a2-3)GalNAc(b1-4)GlcNAc
# Summary of the method: as §1
# [19] = molecular target: Neu5Ac(a2-3)[GalNAc(b1-4)]Gal(b1-4)Glc
# Summary of the method: as §1
# [20] = molecular target: Neu5Ac(a2-3)[GalNAc(b1-4)]Gal(b1-4)GlcNAc
# Summary of the method: as §1
# [21] = molecular target: Neu5Ac(a2-3)[GalNAc(b1-4)]Gal(b1-4)GlcNAc(b1-3)GalNAc
# Summary of the method: as §1
# [22] = molecular target: Neu5Ac(a2-3)[Neu5Ac(a2-6)]GalNAc
# Summary of the method: as §1
# [23] = molecular target: Neu5Ac(a2-6)Gal
# Summary of the method: as §1
# [24] = molecular target: Neu5Ac(a2-6)Gal(b1-3)GlcNAc(b1-3)[Gal(b1-4)GlcNAc(b1-6)]Gal(b1-4)Glc
# Summary of the method: as §1
# [25] = molecular target: Neu5Ac(a2-6)Gal(b1-4)Glc
# Summary of the method: as §1
# [26] = molecular target: Neu5Ac(a2-6)Gal(b1-4)GlcNAc
# Summary of the method: as §1
# [27] = molecular target: Neu5Ac(a2-6)Gal(b1-4)GlcNAc(b1-2)Man
# Summary of the method: as §1
# [28] = molecular target: Neu5Ac(a2-6)Gal(b1-4)GlcNAc(b1-2)Man(a1-3)Man(b1-4)GlcNAc(b1-4)GlcNAc
# Summary of the method: as §1
# [29] = molecular target: Neu5Ac(a2-6)Gal(b1-4)GlcNAc(b1-2)Man(a1-3)[Gal(b1-4)GlcNAc(b1-2)Man(a1-6)]Man(b1-4)GlcNAc(b1-4)GlcNAc
# Summary of the method: as §1
# [30] = molecular target: Neu5Ac(a2-6)Gal(b1-4)GlcNAc(b1-2)Man(a1-3)[GlcNAc(b1-2)Man(a1-6)]Man(b1-4)GlcNAc(b1-4)GlcNAc
# Summary of the method: as §1
# [31] = molecular target: Neu5Ac(a2-6)Gal(b1-4)GlcNAc(b1-2)Man(a1-3)[GlcNAc(b1-4)][Neu5Ac(a2-6)Gal(b1-4)GlcNAc(b1-2)Man(a1-6)]Man(b1-4)GlcNAc(b1-4)GlcNAc
# Summary of the method: as §1
binder,measurement,setting,value
"BC2LB (Burholderia cenocepacia), B4EH85_BURCJ (protein) MGSSHHHHHHSSGENLYFQGHMSQPFTHDDLYALLQLAGNDATAVQANGDQAVLDRMRQFMTAQLVEKLPQYDVFVDIATIPYSFDVGSWQNKVKTDAAGEVVACTVTWAGAPGVLPGAAAKFGVGAVVNYFSKATPH",glycan array binding signal (z-score),[1],-0.174
same,glycan array binding signal (z-score),[2],-0.195
same,glycan array binding signal (z-score),[3],-0.284
same,glycan array binding signal (z-score),[4],-0.264
same,glycan array binding signal (z-score),[5],-0.284
same,glycan array binding signal (z-score),[6],-0.209
same,glycan array binding signal (z-score),[7],-0.354
same,glycan array binding signal (z-score),[8],-0.332
same,glycan array binding signal (z-score),[9],0.031
same,glycan array binding signal (z-score),[10],-0.141
same,glycan array binding signal (z-score),[11],0.843
same,glycan array binding signal (z-score),[12],-0.247
same,glycan array binding signal (z-score),[13],0.387
same,glycan array binding signal (z-score),[14],-0.374
same,glycan array binding signal (z-score),[15],-0.175
same,glycan array binding signal (z-score),[16],-0.298
same,glycan array binding signal (z-score),[17],-0.242
same,glycan array binding signal (z-score),[18],-0.32
same,glycan array binding signal (z-score),[19],-0.304
same,glycan array binding signal (z-score),[20],-0.369
same,glycan array binding signal (z-score),[21],-0.22
same,glycan array binding signal (z-score),[22],-0.404
same,glycan array binding signal (z-score),[23],-0.172
same,glycan array binding signal (z-score),[24],-0.167
same,glycan array binding signal (z-score),[25],-0.209
same,glycan array binding signal (z-score),[26],-0.206
same,glycan array binding signal (z-score),[27],-0.171
same,glycan array binding signal (z-score),[28],-0.221
same,glycan array binding signal (z-score),[29],-0.315
same,glycan array binding signal (z-score),[30],-0.232
same,glycan array binding signal (z-score),[31],-0.196

# Source: the supplement of paper PMC8728848
